The record followed here is the supplement of paper PMC4967469.

A lower IC50 marks a more sensitive line; fits outside the tested doses are given as limits. For AUC the same curve is integrated over the 256-fold range of doses and scaled to a fraction; values near 1 show little effect. Where the top dose is marked as inferred, it is not printed in the source and was worked back from the curve model. For some assays here: Drugs with an entry number were screened twice under separate entries, and the two screens often disagree.

Compound in one test: O=C(c1cc(Cc2n[nH]c(=O)c3ccccc23)ccc1F)N1CCN(C(=O)C2CC2)CC1 [Olaparib]
As to the kind of experiment: Viability of human cancer cell lines after 72 h of drug (GDSC screen). The note with it: top dose 5 µM; screen: GDSC drug entry 1017; top dose inferred. As for the experimental part: (§1)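 Human cancer cell lines in 384-well plates, medium with 10% serum, drug for 72 h over a 256-fold dose range (nine 2-fold or five 4-fold steps up to the top dose). Adherent lines were fixed and stained with the nucleic acid dye Syto60, suspension lines read with resazurin; signal relative to control wells, capped at 0 and 100%. One two-parameter sigmoid per drug and line, fitted in a mixed model over all curves with the slope shared within a line.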
Consider NB69 (neuroblastoma, adherent), for which the AUC was found to be 0.913 and the IC50 is > 5 µM.

Consider NB(TU)1-10 (neuroblastoma, adherent), for which the AUC worked out at 0.948 and the concentration for half-maximal inhibition (IC50) was > 5 µM.

Take “NB-4 (acute myeloid leukaemia, suspension)”: the AUC turned out to be 0.964 and the 50% inhibitory concentration (IC50) was > 5 µM.

Consider “NCI-H82 (small cell lung carcinoma, suspension)”, for which the AUC came out at 0.982 and the IC50 is > 5 µM.

As to “NCI-H226 (lung squamous cell carcinoma, adherent)”, the AUC turned out to be 0.979 and the IC50 is > 5 µM.

As for “NCI-H345 (small cell lung carcinoma, suspension)”, the AUC is 0.99 and the 50% inhibitory concentration (IC50) is > 5 µM.

Regarding “NCI-H446 (small cell lung carcinoma, semi-adherent)”, the AUC was 0.984 and the IC50 was > 5 µM.

Take “NCI-H524 (small cell lung carcinoma, suspension)”: the AUC turned out to be 0.963 and the IC50 is > 5 µM.

Take NCI-H720 (lung carcinoid, suspension): the AUC was found to be 0.992 and the concentration for half-maximal inhibition (IC50) was > 5 µM.

For NCI-H747 (large intestine, adherent), the AUC is 0.98 and the IC50 is > 5 µM.

On to “NCI-H847 (small cell lung carcinoma, adherent)”, for which the AUC was 0.993 and the concentration for half-maximal inhibition (IC50) was > 5 µM.

Consider “NCI-H1155 (large cell lung carcinoma, suspension)”, for which the AUC worked out at 0.97 and the IC50 was > 5 µM.

Take “NCI-H1304 (small cell lung carcinoma, suspension)”: the AUC came to 0.982 and the IC50 is > 5 µM.

Regarding “NCI-H1395 (lung adenocarcinoma, adherent)”, the AUC stood at 0.97 and the IC50 is > 5 µM.

“NCI-H1436 (small cell lung carcinoma, suspension)”: the AUC turned out to be 0.983 and the concentration for half-maximal inhibition (IC50) is > 5 µM.

For the cell line “NCI-H1694 (small cell lung carcinoma, suspension)”, the AUC amounted to 0.988 and the IC50 is > 5 µM.

For the cell line “NCI-H1770 (non-small cell lung carcinoma, suspension)”, the AUC is 0.992 and the IC50 was > 5 µM.

With “NCI-H1876 (small cell lung carcinoma, adherent)”, the AUC is 0.854 and the 50% inhibitory concentration (IC50) worked out at 4.01 µM.

As for “NCI-H2141 (small cell lung carcinoma, suspension)”, the AUC worked out at 0.99 and the half-maximal inhibitory concentration (IC50) was > 5 µM.

Staying with this test, now noted: top dose 10 µM; screen: GDSC drug entry 1495.
For NB(TU)1-10 (neuroblastoma, adherent), the AUC turned out to be 0.993 and the IC50 was > 10 µM.

As to “NB-4 (acute myeloid leukaemia, suspension)”, the AUC amounted to 0.961 and the IC50 was > 10 µM.

For the cell line “NCI-H82 (small cell lung carcinoma, suspension)”, the AUC was 0.983 and the IC50 was > 10 µM.

For “NCI-H226 (lung squamous cell carcinoma, adherent)”, the AUC was 0.968 and the half-maximal inhibitory concentration (IC50) is > 10 µM.

As to “NCI-H345 (small cell lung carcinoma, suspension)”, the AUC is 0.978 and the concentration for half-maximal inhibition (IC50) was > 10 µM.

For “NCI-H446 (small cell lung carcinoma, semi-adherent)”, the AUC worked out at 0.972 and the IC50 was > 10 µM.

With “NCI-H524 (small cell lung carcinoma, suspension)”, the AUC was determined as 0.979 and the half-maximal inhibitory concentration (IC50) was > 10 µM.

NCI-H720 (lung carcinoid, suspension): the AUC turned out to be 0.981 and the IC50 is > 10 µM.

As to NCI-H747 (large intestine, adherent), the AUC was 0.962 and the IC50 was > 10 µM.

In the case of “NCI-H847 (small cell lung carcinoma, adherent)”, the AUC was 0.986 and the half-inhibitory concentration (IC50) was > 10 µM.

Consider “NCI-H1155 (large cell lung carcinoma, suspension)”, for which the AUC worked out at 0.979 and the concentration for half-maximal inhibition (IC50) is > 10 µM.

For “NCI-H1304 (small cell lung carcinoma, suspension)”, the AUC was 0.986 and the IC50 was > 10 µM.

As for “NCI-H1395 (lung adenocarcinoma, adherent)”, the AUC amounted to 0.875 and the IC50 is > 10 µM.

Consider “NCI-H1436 (small cell lung carcinoma, suspension)”, for which the AUC worked out at 0.98 and the IC50 is > 10 µM.

Take “NCI-H1694 (small cell lung carcinoma, suspension)”: the AUC is 0.983 and the IC50 was > 10 µM.

In the case of “NCI-H1770 (non-small cell lung carcinoma, suspension)”, the AUC is 0.985 and the IC50 is > 10 µM.

For “NCI-H1876 (small cell lung carcinoma, adherent)”, the AUC was found to be 0.832 and the 50% inhibitory concentration (IC50) is 6.49 µM.

“NCI-H2141 (small cell lung carcinoma, suspension)”: the AUC was found to be 0.99 and the IC50 was > 10 µM.

Compound in another test: O=C1NC(=O)c2c1c(-c1ccccc1Cl)cc1[nH]c3ccc(O)cc3c21 [Wee1 inhibitor 681640]
The test is described as above. The note with it: top dose 2 µM; top dose inferred. As for the experimental part:
as §1
On to NB69 (neuroblastoma, adherent), for which the AUC came to 0.99 and the IC50 was > 2 µM.

For NB(TU)1-10 (neuroblastoma, adherent), the AUC worked out at 0.989 and the concentration for half-maximal inhibition (IC50) is > 2 µM.

Regarding “NB-4 (acute myeloid leukaemia, suspension)”, the AUC turned out to be 0.972 and the IC50 is > 2 µM.

“NCI-H82 (small cell lung carcinoma, suspension)”: the AUC amounted to 0.919 and the 50% inhibitory concentration (IC50) is > 2 µM.

As to “NCI-H226 (lung squamous cell carcinoma, adherent)”, the AUC was 0.987 and the half-inhibitory concentration (IC50) was > 2 µM.

Turning to “NCI-H345 (small cell lung carcinoma, suspension)”, the AUC worked out at 0.987 and the IC50 was > 2 µM.

As to “NCI-H446 (small cell lung carcinoma, semi-adherent)”, the AUC was 0.985 and the 50% inhibitory concentration (IC50) was > 2 µM.

Regarding “NCI-H524 (small cell lung carcinoma, suspension)”, the AUC came to 0.977 and the IC50 is > 2 µM.

As for NCI-H720 (lung carcinoid, suspension), the AUC turned out to be 0.987 and the IC50 was > 2 µM.

Take NCI-H747 (large intestine, adherent): the AUC was 0.981 and the IC50 is > 2 µM.

“NCI-H847 (small cell lung carcinoma, adherent)”: the AUC turned out to be 0.984 and the IC50 is > 2 µM.

On to “NCI-H1155 (large cell lung carcinoma, suspension)”, for which the AUC was 0.979 and the IC50 was > 2 µM.

“NCI-H1304 (small cell lung carcinoma, suspension)”: the AUC came out at 0.97 and the IC50 was > 2 µM.

With “NCI-H1395 (lung adenocarcinoma, adherent)”, the AUC was 0.974 and the IC50 was > 2 µM.

Turning to “NCI-H1436 (small cell lung carcinoma, suspension)”, the AUC was determined as 0.975 and the IC50 was > 2 µM.

As for “NCI-H1694 (small cell lung carcinoma, suspension)”, the AUC came to 0.964 and the IC50 was > 2 µM.

For “NCI-H1770 (non-small cell lung carcinoma, suspension)”, the AUC was determined as 0.992 and the IC50 was > 2 µM.

In the case of “NCI-H1876 (small cell lung carcinoma, adherent)”, the AUC amounted to 0.964 and the half-inhibitory concentration (IC50) is > 2 µM.

With “NCI-H2141 (small cell lung carcinoma, suspension)”, the AUC is 0.981 and the IC50 is > 2 µM.

Compound in a further test: COc1cc(-c2nn([C@H]3CC[C@H](N4CCN(C(C)=O)CC4)CC3)c3ncnc(N)c23)ccc1NC(=O)c1cc2ccccc2n1C [A-770041]
The description is as above. The note with it: top dose 5.12 µM; top dose inferred. As for the experimental part:
as §1
NB69 (neuroblastoma, adherent): the AUC was 0.823 and the IC50 came out at 2.57 µM.

For the cell line NB(TU)1-10 (neuroblastoma, adherent), the AUC was found to be 0.945 and the half-maximal inhibitory concentration (IC50) is > 5.12 µM.

Regarding “NB-4 (acute myeloid leukaemia, suspension)”, the AUC is 0.824 and the concentration for half-maximal inhibition (IC50) is 2.35 µM.

With “NCI-H82 (small cell lung carcinoma, suspension)”, the AUC came to 0.987 and the half-maximal inhibitory concentration (IC50) is > 5.12 µM.

For “NCI-H226 (lung squamous cell carcinoma, adherent)”, the AUC is 0.977 and the IC50 was > 5.12 µM.

One may read the IC50 as the concentration needed to halve the response being measured.
